48 molecules from PubChem BioAssay AID485344 (National Center for Advancing Translational Sciences (NCATS), 2010) can be followed below.

Usually inhibition stands for the drop in the measured response relative to a control, in per cent.

Each structure is given as a SMILES string. Hit rate of the full screen: of about 340,000 compounds, about 6,900 (2%) were called active. Rule as the data show it: active = inhibition above about 30%; inactive = below that, where a call was filed. The list shows a part of the results, in another mix than the full data. Where no call is shown, the source filed none.

Chain of UniProt P14416 (P14416 whole entry, looked up): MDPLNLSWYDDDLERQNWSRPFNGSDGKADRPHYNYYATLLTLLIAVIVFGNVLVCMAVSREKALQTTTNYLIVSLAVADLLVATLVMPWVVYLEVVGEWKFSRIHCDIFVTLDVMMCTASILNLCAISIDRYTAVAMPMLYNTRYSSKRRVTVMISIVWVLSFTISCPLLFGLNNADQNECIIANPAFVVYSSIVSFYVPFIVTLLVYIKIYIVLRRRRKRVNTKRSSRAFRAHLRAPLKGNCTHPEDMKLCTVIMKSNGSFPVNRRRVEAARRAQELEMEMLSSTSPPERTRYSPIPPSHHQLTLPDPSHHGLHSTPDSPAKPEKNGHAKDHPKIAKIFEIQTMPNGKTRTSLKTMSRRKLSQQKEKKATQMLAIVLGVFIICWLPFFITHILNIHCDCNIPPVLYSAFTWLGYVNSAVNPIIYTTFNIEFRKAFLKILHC

This assay deals with D(2) dopamine receptor (Homo sapiens) (UniProt P14416). In words: HTS Assay for Allosteric Antagonists of the Human D2 Dopamine Receptor: Primary Screen for Antagonists. Also: 0% is about no effect. As to conditions: HEK293 TREx D2 cells, calcium flux, dopamine EC80; at 10 µM; stronger effect = higher value. The text has this:
NIH Chemical Genomics Center [NCGC] NIH Molecular Libraries Probe Centers Network [MLPCN] MLPCN Grant: NS064831-01 Assay Submitter (PI): David Sibley Dopamine receptors (DARs) are involved in the etiology and/or therapy of a number of neuropsychiatric and endocrine disorders. For instance, all receptor-based antiparkinsonian drugs work via stimulating the D2 DAR subtype whereas all FDA-approved antipsychotic agents are antagonists of this receptor. […] There are three different types of allosteric modulators that we are seeking, two of which will stimulate or augment receptor signaling, allosteric agonists and potentiators, while the third, allosteric antagonists, will attenuate receptor signaling. The present primary screening assay measures compound antagonism after an EC80 addition of dopamine by tracking calcium flux in a […], inducible Hek293 Trex D2 cell line.
Freshly passaged cells are plated in 1536 well black, clear bottom plates at a density of 4000 cells/well in 3 ul of complete media containing 1x tetracycline inducer. After an overnight incubation at 30 C in 5% CO2, cells are loaded with 2 ul of the no wash Calcium Assay Kit (ABD Bioquest) and incubated at room temperature for 30 to 90 minutes. Agonist read: A 10 cycle (1 second/cycle) baseline measurement is taken and then the FDSS online 1536 pintool delivers 23 nl of compound library (as well as dopamine controls) to the plate. The plate is measured for kinetically at 1 cycle/sec for 180 seconds. Following the 180 second read, 1 ul of an EC80 (negative modulation assay) is delivered by an onboard pipette head. Measurements are taken kinetically for an additional 180 seconds.
Take `O=c1c2cccnc2[nH]c(=S)n1CCCN1CCN(c2ccccc2F)CC1`: the inhibition is active: 116%.

`O=C(c1ccc(Cl)cc1)N1CCN(CCOc2ccccc2)CC1`: the inhibition is active: 76.4%.

In the case of `COc1cccc(CNC(=O)C2CCN(S(=O)(=O)N3CCC(C)CC3)CC2)c1`, the inhibition is -22.9%.

As for `O=C(/C=C/c1ccccc1Cl)N(c1ccccn1)C1CCCCC1`, the inhibition is active: 98.8%.

Regarding `CC1CCN(S(=O)(=O)c2ccc3nc(Nc4ccc(C#N)cc4)ccc3c2)CC1`, the inhibition stood at 0.292%.

In the case of `O=C(NCC(c1cccnc1)N1CCc2ccccc2C1)C(=O)Nc1ccccc1` (stereo not drawn), the inhibition was 5.36%.

As for `COc1ccccc1CNS(=O)(=O)c1ccc(F)c(C(=O)Nc2cc(Cl)ccc2OC)c1`, the inhibition was -3.57%.

Regarding `COc1ccccc1N1CCN(S(=O)(=O)c2c(C)nc3sc(C)c(C)n3c2=O)CC1`, the inhibition was -5.6%.

In the case of `Cc1cccc(OCCSc2nc(-c3cccs3)nc3cc(=O)[nH]n23)c1`, the inhibition was -1.01%.

As to `CCOc1ccc(Nc2nc(N)nc(CN3CCN(c4ccccc4F)CC3)n2)cc1`, the inhibition is active: 33%.

Regarding `COc1ccc(Cn2ccc3nc(C)c(C(=O)Nc4ccc(OC(F)(F)F)cc4)cc3c2=O)cc1`, the inhibition was determined as 12.3%.

Take `CCCCC(=O)OC1=C(C(=O)c2ccccc2)N(CC)S(=O)(=O)c2ccccc21`: the inhibition was found to be 2.69%.

In the case of `CSc1ccc(CNC(=O)c2cc3cc(S(=O)(=O)N4CCCCC4)ccc3n2C)cc1`, the inhibition was -13.4%.

As for `O=C(Nc1cccc(-c2nc3ccccc3o2)c1)c1cccc(Br)c1`, the inhibition is 13.9%.

In the case of `Cc1ccc(CN2C3CCCC2CC(NC(=O)c2ccc(F)cc2)C3)cc1` (stereo not drawn), the inhibition is active: 92.1%.

In the case of `CCOC(=O)c1c(Nc2cc(C)cc(C)c2)nnc(-c2ccccc2)c1-c1ccccc1`, the inhibition was -12.9%.

As for `Cc1cccc(-n2c3nc(=O)[nH]c(=O)c-3cc3c(C)nn(-c4ccccc4)c32)c1C`, the inhibition is -1.35%.

Turning to `COc1ccccc1NC(=O)CSC1=Nc2ccccc2N=C(c2ccc(F)cc2)C1`, the inhibition is -21%.

As for `O=C(Nc1ccccc1)c1cn(-c2ccccc2)nc1-c1ccccc1`, the inhibition amounted to 4.66%.

Consider `CCN(C(=O)Cn1c(=O)n(CC2CCC(C(=O)NC)CC2)c(=O)c2sccc21)c1ccccc1` (stereo not drawn), for which the inhibition came to 7.08%.

As to `COc1cc2c(C(=O)N(C)c3cc(Cl)ccc3OC)cn(CC(C)C)c(=O)c2cc1OC`, the inhibition was -16.6%.

For the molecule `Cc1nn(CCCC(=O)Nc2cccc(F)c2)c(=O)c2c1sc1ccccc12`, the inhibition was found to be 9.74%.

Turning to `COc1ccccc1N1CCN(CCCCOc2cccc3ccccc23)CC1`, the inhibition was active: 73.1%.

For the molecule `Cc1ccc(SCC(=O)Nc2cccc(S(=O)(=O)N3CCOCC3)c2)cc1C`, the inhibition was active: 34.9%.

As to `COc1ccc(NC(=O)CN2C(=O)CCc3cc(S(=O)(=O)N4CCOCC4)ccc32)cc1Cl`, the inhibition was -15.4%.

With `CCN(CC)C(=O)CSc1nc2ccccc2c(=O)n1Cc1ccco1`, the inhibition was 20.3%.

Regarding `Cc1ccc(NC(=O)Cn2c(-c3cncs3)nc3ccccc32)cc1Br`, the inhibition was -8.15%.

As to `COc1ccc(Cl)cc1NC(=O)N1CC(=O)Nc2sc3c(c2C1c1ccccc1)CCCC3` (stereo not drawn), the inhibition is -23.5%.

In the case of `CC1CCN(S(=O)(=O)c2ccc3c(c2)N(CC(=O)N2CCN(c4ccccc4)CC2)C(=O)CO3)CC1`, the inhibition was -0.18%.

As to `CC(=O)c1ccc(NC(=O)Cn2ncc3c(C)n(Cc4ccc(F)cc4)c(C)c3c2=O)cc1`, the inhibition came out at 1.13%.

`COc1ccccc1CNc1ncnc2c1c(-c1ccccc1)cn2-c1cccc(C)c1`: the inhibition is -16.3%.

As for `CN(C)S(=O)(=O)c1ccc(Cl)c(NC(=O)CN2CCCCCC2)c1`, the inhibition was active: 34%.

Turning to `COc1ccccc1C(=O)Nc1nc2nc(C)c(Cc3ccccc3)c(=O)n2[nH]1`, the inhibition was 9.86%.

Turning to `COc1cccc(Cn2c(CNS(=O)(=O)c3ccc4c(c3)CCCC4)nc3cccnc32)c1`, the inhibition came to 21.4%.

For `Cc1ccc(NC(=O)c2cccc(S(=O)(=O)N3CCc4ccccc4C3)c2)nc1`, the inhibition is active: 30.5%.

Take `CCc1ccc2c(c1)-c1ccccc1S(=O)(=O)N2CC(=O)N1CCC(C)CC1`: the inhibition is 0.239%.

For `Cc1ccccc1C(=O)NC(=S)NC1CC1`, the inhibition was active: 31.1%.

Turning to `Cc1ccccc1CNC(=O)CCC(=O)N1CC2CCCN2c2ccccc21` (stereo not drawn), the inhibition is 6.11%.

`Cc1cc(O)c(-c2ccnc3cc(-c4ccccc4)nn23)cc1Cl`: the inhibition is -5.41%.

With `CCOc1ccccc1C(=O)N(Cc1cccs1)c1ccc(Cl)cc1`, the inhibition is -13.8%.

As to `COc1cc2ccccc2cc1C(=O)Nc1ccc2oc(-c3ccccc3)nc2c1`, the inhibition was found to be 2.4%.

`Cc1ccc(Nc2cc(C(=O)NCc3cccs3)c3ccccc3n2)c(C)c1`: the inhibition was 3.65%.

As to `Cc1ccc(CCNC(=O)c2cc(-c3ccc(Cl)cc3)n[nH]2)cc1`, the inhibition stood at 23.2%.

`Cc1ccc(NC(=O)c2ccc3[nH]c(C)cc(=O)c3c2)c(C)c1`: the inhibition came to 12.2%.

In the case of `Cc1ccc(NC(=O)Cc2coc3c(C)c(C)ccc23)cc1Cl`, the inhibition turned out to be 8.1%.

On to `COc1ccc(Nc2ncc3c(n2)CCN(C(=O)OC(C)(C)C)C3)cc1`, for which the inhibition amounted to 1.68%.

Turning to `COc1ccccc1CN1CCN(C2CCN(C(=O)NC(C)C)CC2)C(=O)C1=O`, the inhibition stood at 18.2%.

`CCCCn1c(=O)c2c(nc3n2CCCN3Cc2ccccc2)n(C)c1=O`: the inhibition is active: 34.2%.
